Experimental data reported in the supplement of paper PMC8728848.
The other results are listed elsewhere or left out.

Key:
Experiment in all cases: glycan array binding signal (z-score within array); higher = stronger binding
Conditions in all cases: glycan notation: IUPAC condensed, linker removed
[1] = target: Neu5Ac(a2-3)Gal(b1-4)GlcNAc(b1-2)[Neu5Ac(a2-3)Gal(b1-4)GlcNAc(b1-4)]Man(a1-3)[GlcNAc(b1-4)][Neu5Ac(a2-3)Gal(b1-4)GlcNAc(b1-2)[Neu5Ac(a2-3)Gal(b1-4)GlcNAc(b1-6)]Man(a1-6)]Man(b1-4)GlcNAc(b1-4)GlcNAc
Summary of the method: (§1)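 Columns mapping to the same glycan were averaged after glycan names were converted to IUPAC-condensed notation. The data come from 3228 arrays in the Consortium for Functional Glycomics database, limited to those with an available protein sequence. Binding is reported as a within-array Z-score averaged across arrays of one protein sequence and across linkers.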

[2] = target: Neu5Ac(a2-3)Gal(b1-4)GlcNAc(b1-2)[Neu5Ac(a2-3)Gal(b1-4)GlcNAc(b1-4)]Man(a1-3)[GlcNAc(b1-4)][Neu5Ac(a2-3)Gal(b1-4)GlcNAc(b1-4)Man(a1-6)]Man(b1-4)GlcNAc(b1-4)GlcNAc
Summary of the method: as §1

[3] = target: Neu5Ac(a2-3)Gal(b1-4)GlcNAc(b1-2)[Neu5Ac(a2-3)Gal(b1-4)GlcNAc(b1-6)]Man(a1-6)[Neu5Ac(a2-3)Gal(b1-4)GlcNAc(b1-2)Man(a1-3)]Man(b1-4)GlcNAc(b1-4)GlcNAc
Summary of the method: as §1

[4] = target: Neu5Ac(a2-3)Gal(b1-4)GlcNAc(b1-2)[Neu5Ac(a2-3)Gal(b1-4)GlcNAc(b1-6)]Man(a1-6)[Neu5Ac(a2-3)Gal(b1-4)GlcNAc(b1-2)Man(a1-3)][GlcNAc(b1-4)]Man(b1-4)GlcNAc(b1-4)GlcNAc
Summary of the method: as §1

[5] = target: Neu5Ac(a2-3)Gal(b1-4)GlcNAc(b1-3)Gal
Summary of the method: as §1

[6] = target: Neu5Ac(a2-3)Gal(b1-4)GlcNAc(b1-3)Gal(b1-3)GlcNAc
Summary of the method: as §1

[7] = target: Neu5Ac(a2-3)Gal(b1-4)GlcNAc(b1-3)Gal(b1-4)GlcNAc
Summary of the method: as §1

[8] = target: Neu5Ac(a2-3)Gal(b1-4)GlcNAc(b1-3)Gal(b1-4)GlcNAc(b1-2)Man(a1-3)[Neu5Ac(a2-3)Gal(b1-4)GlcNAc(b1-3)Gal(b1-4)GlcNAc(b1-2)Man(a1-6)]Man(b1-4)GlcNAc(b1-4)GlcNAc
Summary of the method: as §1

[9] = target: Neu5Ac(a2-3)Gal(b1-4)GlcNAc(b1-3)Gal(b1-4)GlcNAc(b1-3)Gal(b1-4)GlcNAc
Summary of the method: as §1

[10] = target: Neu5Ac(a2-3)Gal(b1-4)GlcNAc(b1-3)Gal(b1-4)GlcNAc(b1-3)Gal(b1-4)GlcNAc(b1-2)Man(a1-3)[Neu5Ac(a2-3)Gal(b1-4)GlcNAc(b1-3)Gal(b1-4)GlcNAc(b1-3)Gal(b1-4)GlcNAc(b1-2)Man(a1-6)]GalNAc
Summary of the method: as §1

[11] = target: Neu5Ac(a2-3)Gal(b1-4)GlcNAc(b1-3)Gal(b1-4)GlcNAc(b1-3)GalNAc
Summary of the method: as §1

[12] = target: Neu5Ac(a2-3)Gal(b1-4)GlcNAc(b1-3)Gal(b1-4)GlcNAc(b1-3)[Neu5Ac(a2-3)Gal(b1-4)GlcNAc(b1-3)Gal(b1-4)GlcNAc(b1-6)]GalNAc
Summary of the method: as §1

[13] = target: Neu5Ac(a2-3)Gal(b1-4)GlcNAc(b1-3)Gal(b1-4)GlcNAc(b1-6)[Gal(b1-3)]GalNAc
Summary of the method: as §1

[14] = target: Neu5Ac(a2-3)Gal(b1-4)GlcNAc(b1-3)Gal(b1-4)[Fuc(a1-3)]GlcNAc
Summary of the method: as §1

[15] = target: Neu5Ac(a2-3)Gal(b1-4)GlcNAc(b1-3)GalNAc
Summary of the method: as §1

[16] = target: Neu5Ac(a2-3)Gal(b1-4)GlcNAc(b1-3)[Neu5Ac(a2-3)Gal(b1-4)GlcNAc(b1-6)]GalNAc
Summary of the method: as §1

[17] = target: Neu5Ac(a2-3)Gal(b1-4)GlcNAc(b1-6)GalNAc
Summary of the method: as §1

[18] = target: Neu5Ac(a2-3)Gal(b1-4)GlcNAc(b1-6)[Gal(b1-3)]GalNAc
Summary of the method: as §1

[19] = target: Neu5Ac(a2-3)Gal(b1-4)GlcNAc(b1-6)[Neu5Ac(a2-3)Gal(b1-3)]GalNAc
Summary of the method: as §1

[20] = target: Neu5Ac(a2-3)Gal(b1-4)GlcNAc6S
Summary of the method: as §1

[21] = target: Neu5Ac(a2-3)Gal(b1-4)[Fuc(a1-3)]GlcNAc
Summary of the method: as §1

[22] = target: Neu5Ac(a2-3)Gal(b1-4)[Fuc(a1-3)]GlcNAc(b1-2)Man
Summary of the method: as §1

[23] = target: Neu5Ac(a2-3)Gal(b1-4)[Fuc(a1-3)]GlcNAc(b1-3)Gal
Summary of the method: as §1

[24] = target: Neu5Ac(a2-3)Gal(b1-4)[Fuc(a1-3)]GlcNAc(b1-3)Gal(b1-4)GlcNAc
Summary of the method: as §1

[25] = target: Neu5Ac(a2-3)Gal(b1-4)[Fuc(a1-3)]GlcNAc(b1-3)Gal(b1-4)[Fuc(a1-3)]GlcNAc(b1-3)Gal(b1-4)[Fuc(a1-3)]GlcNAc
Summary of the method: as §1

[26] = target: Neu5Ac(a2-3)Gal(b1-4)[Fuc(a1-3)]GlcNAc(b1-3)GalNAc
Summary of the method: as §1

[27] = target: Neu5Ac(a2-3)Gal(b1-4)[Fuc(a1-3)]GlcNAc(b1-6)[Gal(b1-3)]GalNAc
Summary of the method: as §1

[28] = target: Neu5Ac(a2-3)Gal(b1-4)[Fuc(a1-3)]GlcNAc(b1-6)[Neu5Ac(a2-3)Gal(b1-3)]GalNAc
Summary of the method: as §1

[29] = target: Neu5Ac(a2-3)Gal(b1-4)[Fuc(a1-3)]GlcNAc6S
Summary of the method: as §1

[30] = target: Neu5Ac(a2-3)Gal6S(b1-4)GlcNAc
Summary of the method: as §1

[31] = target: Neu5Ac(a2-3)Gal6S(b1-4)[Fuc(a1-3)]GlcNAc
Summary of the method: as §1

Neu5Ac(a2-3)GalNAc = target: Neu5Ac(a2-3)GalNAc
Summary of the method: as §1

[32] = target: Neu5Ac(a2-3)GalNAc(b1-4)GlcNAc
Summary of the method: as §1

[33] = target: Neu5Ac(a2-3)[GalNAc(b1-4)]Gal(b1-4)Glc
Summary of the method: as §1

[34] = target: Neu5Ac(a2-3)[GalNAc(b1-4)]Gal(b1-4)GlcNAc
Summary of the method: as §1

[35] = target: Neu5Ac(a2-3)[GalNAc(b1-4)]Gal(b1-4)GlcNAc(b1-3)GalNAc
Summary of the method: as §1

[36] = target: Neu5Ac(a2-3)[Neu5Ac(a2-6)]GalNAc
Summary of the method: as §1

Neu5Ac(a2-6)Gal = target: Neu5Ac(a2-6)Gal
Summary of the method: as §1

[37] = target: Neu5Ac(a2-6)Gal(b1-3)GlcNAc(b1-3)[Gal(b1-4)GlcNAc(b1-6)]Gal(b1-4)Glc
Summary of the method: as §1

Neu5Ac(a2-6)Gal(b1-4)Glc = target: Neu5Ac(a2-6)Gal(b1-4)Glc
Summary of the method: as §1

[38] = target: Neu5Ac(a2-6)Gal(b1-4)GlcNAc
Summary of the method: as §1

[39] = target: Neu5Ac(a2-6)Gal(b1-4)GlcNAc(b1-2)Man
Summary of the method: as §1

[40] = target: Neu5Ac(a2-6)Gal(b1-4)GlcNAc(b1-2)Man(a1-3)Man(b1-4)GlcNAc(b1-4)GlcNAc
Summary of the method: as §1

[41] = target: Neu5Ac(a2-6)Gal(b1-4)GlcNAc(b1-2)Man(a1-3)[Gal(b1-4)GlcNAc(b1-2)Man(a1-6)]Man(b1-4)GlcNAc(b1-4)GlcNAc
Summary of the method: as §1

[42] = target: Neu5Ac(a2-6)Gal(b1-4)GlcNAc(b1-2)Man(a1-3)[GlcNAc(b1-2)Man(a1-6)]Man(b1-4)GlcNAc(b1-4)GlcNAc
Summary of the method: as §1

B1: LBL-152 (Laetiporus bicolor), B0D650 (protein)
chain: MSNEYNPPLGIAFRLCGLASDRVLFSRVSPSPEVFHHPKSEVYPDQWFVAIPGSGQNAGCYAIKSKNTGKVLFSRMSPDPRVGHIDGDGKYPDNWFKFEAGSGKYAGYFRLRAVASDTVLVSRTSTGTDTQVINYPATSAKYDDQYFTILFDHHHHHH
Q: With B1 as the binder, how does the “glycan array binding signal (z-score)” value [1] read?
A: -0.153

Q: What about the “glycan array binding signal (z-score)” value [2] of the same binder?
A: -0.16

Q: What about the “glycan array binding signal (z-score)” value [3] of the same binder?
A: -0.147

Q: What about the “glycan array binding signal (z-score)” value [4] of the same binder?
A: -0.15

Q: What about the “glycan array binding signal (z-score)” value [5] of the same binder?
A: -0.154

Q: And the “glycan array binding signal (z-score)” value [6]?
A: -0.151

Q: What about the “glycan array binding signal (z-score)” value [7] of the same binder?
A: -0.159

Q: What about the “glycan array binding signal (z-score)” value [8] of the same binder?
A: -0.155

Q: What about the “glycan array binding signal (z-score)” value [9] of the same binder?
A: -0.143

Q: And the “glycan array binding signal (z-score)” value [10]?
A: -0.152

Q: What about the “glycan array binding signal (z-score)” value [11] of the same binder?
A: -0.159

Q: And the “glycan array binding signal (z-score)” value [12]?
A: -0.153

Q: What about the “glycan array binding signal (z-score)” value [13] of the same binder?
A: -0.162

Q: What about the “glycan array binding signal (z-score)” value [14] of the same binder?
A: -0.157

Q: And the “glycan array binding signal (z-score)” value [15]?
A: -0.152

Q: And the “glycan array binding signal (z-score)” value [16]?
A: -0.155

Q: What about the “glycan array binding signal (z-score)” value [17] of the same binder?
A: -0.16

Q: What about the “glycan array binding signal (z-score)” value [18] of the same binder?
A: -0.152

Q: And the “glycan array binding signal (z-score)” value [19]?
A: -0.161

Q: And the “glycan array binding signal (z-score)” value [20]?
A: -0.149

Q: And the “glycan array binding signal (z-score)” value [21]?
A: -0.156

Q: And the “glycan array binding signal (z-score)” value [22]?
A: -0.16

Q: What about the “glycan array binding signal (z-score)” value [23] of the same binder?
A: -0.156

Q: And the “glycan array binding signal (z-score)” value [24]?
A: -0.147

Q: And the “glycan array binding signal (z-score)” value [25]?
A: -0.153

Q: What about the “glycan array binding signal (z-score)” value [26] of the same binder?
A: -0.151

Q: What about the “glycan array binding signal (z-score)” value [27] of the same binder?
A: -0.153

Q: What about the “glycan array binding signal (z-score)” value [28] of the same binder?
A: -0.149

Q: What about the “glycan array binding signal (z-score)” value [29] of the same binder?
A: -0.152

Q: And the “glycan array binding signal (z-score)” value [30]?
A: -0.156

Q: What about the “glycan array binding signal (z-score)” value [31] of the same binder?
A: -0.153

Q: And the “glycan array binding signal (z-score)” value (Neu5Ac(a2-3)GalNAc)?
A: -0.157

Q: And the “glycan array binding signal (z-score)” value [32]?
A: -0.153

Q: And the “glycan array binding signal (z-score)” value [33]?
A: -0.157

Q: What about the “glycan array binding signal (z-score)” value [34] of the same binder?
A: -0.158

Q: And the “glycan array binding signal (z-score)” value [35]?
A: -0.151

Q: And the “glycan array binding signal (z-score)” value [36]?
A: -0.151

Q: What about the “glycan array binding signal (z-score)” value (Neu5Ac(a2-6)Gal) of the same binder?
A: -0.133

Q: What about the “glycan array binding signal (z-score)” value [37] of the same binder?
A: -0.16

Q: And the “glycan array binding signal (z-score)” value (Neu5Ac(a2-6)Gal(b1-4)Glc)?
A: -0.151

Q: What about the “glycan array binding signal (z-score)” value [38] of the same binder?
A: -0.153

Q: And the “glycan array binding signal (z-score)” value [39]?
A: -0.151

Q: What about the “glycan array binding signal (z-score)” value [40] of the same binder?
A: -0.158

Q: And the “glycan array binding signal (z-score)” value [41]?
A: -0.157

Q: And the “glycan array binding signal (z-score)” value [42]?
A: -0.161
